# Assay results taken from the supplement of paper PMC8728848.
# This is one part of the list.
# Experiments:
# Test in all cases: glycan array binding signal (z-score within array); higher = stronger binding
# Conditions in all cases: glycan notation: IUPAC condensed, linker removed; mutation: D22R
# [1] = molecular target: Gal(b1-4)GlcNAc(b1-3)Gal(b1-4)GlcNAc(b1-3)[Gal(b1-4)GlcNAc(b1-3)Gal(b1-4)GlcNAc(b1-6)]GalNAc
# How it was run: (§1)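 The Consortium for Functional Glycomics database supplied 3228 glycan arrays, of which those lacking an available protein sequence were dropped. The binding signal, a within-array Z-score, was averaged across arrays of the same protein sequence and across linkers. Negative scores can be read as non-binding.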
# [2] = molecular target: Gal(b1-4)GlcNAc(b1-3)Gal(b1-4)GlcNAc(b1-6)[Gal(b1-3)]GalNAc
# How it was run: as §1
# [3] = molecular target: Gal(b1-4)GlcNAc(b1-3)Gal(b1-4)[Fuc(a1-3)]GlcNAc(b1-3)Gal(b1-4)[Fuc(a1-3)]GlcNAc
# How it was run: as §1
# [4] = molecular target: Gal(b1-4)GlcNAc(b1-3)GalNAc
# How it was run: as §1
# [5] = molecular target: Gal(b1-4)GlcNAc(b1-3)[Fuc(a1-3)GlcNAc(b1-6)]Gal(b1-4)Glc
# How it was run: as §1
# [6] = molecular target: Gal(b1-4)GlcNAc(b1-3)[Gal(b1-4)GlcNAc(b1-6)]Gal(b1-4)GlcNAc
# How it was run: as §1
# [7] = molecular target: Gal(b1-4)GlcNAc(b1-3)[GlcNAc(b1-6)]Gal(b1-4)GlcNAc
# How it was run: as §1
# [8] = molecular target: Gal(b1-4)GlcNAc(b1-6)Gal(b1-4)GlcNAc
# How it was run: as §1
# [9] = molecular target: Gal(b1-4)GlcNAc(b1-6)GalNAc
# How it was run: as §1
# [10] = molecular target: Gal(b1-4)GlcNAc(b1-6)[Gal(b1-3)]GalNAc
# How it was run: as §1
# [11] = molecular target: Gal(b1-4)GlcNAc(b1-6)[Gal(b1-4)GlcNAc(b1-3)]GalNAc
# How it was run: as §1
# Gal(b1-4)GlcNAc6P = molecular target: Gal(b1-4)GlcNAc6P
# How it was run: as §1
# Gal(b1-6)Gal = molecular target: Gal(b1-6)Gal
# How it was run: as §1
# Gal3S(b1-3)GalNAc = molecular target: Gal3S(b1-3)GalNAc
# How it was run: as §1
# Gal3S(b1-3)GlcNAc = molecular target: Gal3S(b1-3)GlcNAc
# How it was run: as §1
# [12] = molecular target: Gal3S(b1-3)[Fuc(a1-4)]GlcNAc
# How it was run: as §1
# Gal3S(b1-4)Glc = molecular target: Gal3S(b1-4)Glc
# How it was run: as §1
# Gal3S(b1-4)Glc6S = molecular target: Gal3S(b1-4)Glc6S
# How it was run: as §1
# Gal3S(b1-4)GlcNAc = molecular target: Gal3S(b1-4)GlcNAc
# How it was run: as §1
# [13] = molecular target: Gal3S(b1-4)[Fuc(a1-3)]Glc6S
# How it was run: as §1
# [14] = molecular target: Gal3S(b1-4)[Fuc(a1-3)]GlcNAc
# How it was run: as §1
# [15] = molecular target: Gal3S(b1-4)[Fuc(a1-3)]GlcNAc6S
# How it was run: as §1
# Gal3S4S(b1-4)GlcNAc = molecular target: Gal3S4S(b1-4)GlcNAc
# How it was run: as §1
# Gal3S6S(b1-4)GlcNAc = molecular target: Gal3S6S(b1-4)GlcNAc
# How it was run: as §1
# Gal3S6S(b1-4)GlcNAc6S = molecular target: Gal3S6S(b1-4)GlcNAc6S
# How it was run: as §1
# Gal4S(b1-4)GlcNAc = molecular target: Gal4S(b1-4)GlcNAc
# How it was run: as §1
# Gal4S6S(b1-4)GlcNAc = molecular target: Gal4S6S(b1-4)GlcNAc
# How it was run: as §1
# Gal6P(b1-4)GlcNAc = molecular target: Gal6P(b1-4)GlcNAc
# How it was run: as §1
# Gal6S(b1-3)GlcNAc = molecular target: Gal6S(b1-3)GlcNAc
# How it was run: as §1
# Gal6S(b1-3)GlcNAc6S = molecular target: Gal6S(b1-3)GlcNAc6S
# How it was run: as §1
# Gal6S(b1-4)Glc = molecular target: Gal6S(b1-4)Glc
# How it was run: as §1
# Gal6S(b1-4)Glc6S = molecular target: Gal6S(b1-4)Glc6S
# How it was run: as §1
# Gal6S(b1-4)GlcNAc = molecular target: Gal6S(b1-4)GlcNAc
# How it was run: as §1
# Gal6S(b1-4)GlcNAc6S = molecular target: Gal6S(b1-4)GlcNAc6S
# How it was run: as §1
# GalNAc(a1-3)Gal = molecular target: GalNAc(a1-3)Gal
# How it was run: as §1
# GalNAc(a1-3)GalNAc = molecular target: GalNAc(a1-3)GalNAc
# How it was run: as §1
# [16] = molecular target: GalNAc(a1-3)GalNAc(b1-3)Gal(a1-4)Gal(b1-4)Glc
# How it was run: as §1
# [17] = molecular target: GalNAc(a1-3)GalNAc(b1-3)Gal(a1-4)Gal(b1-4)GlcNAc
# How it was run: as §1
# GalNAc(b1-3)Gal = molecular target: GalNAc(b1-3)Gal
# How it was run: as §1
# [18] = molecular target: GalNAc(b1-3)Gal(a1-4)Gal(b1-4)GlcNAc
# How it was run: as §1
# [19] = molecular target: GalNAc(b1-3)Gal(a1-4)Gal(b1-4)GlcNAc(b1-3)Gal(b1-4)Glc
# How it was run: as §1
# [20] = molecular target: GalNAc(b1-3)Gal(a1-6)Gal(b1-4)Glc
# How it was run: as §1
# GalNAc(b1-3)GalNAc = molecular target: GalNAc(b1-3)GalNAc
# How it was run: as §1
# GalNAc(b1-3)GlcNAc = molecular target: GalNAc(b1-3)GlcNAc
# How it was run: as §1
# GalNAc(b1-4)Gal(b1-4)Glc = molecular target: GalNAc(b1-4)Gal(b1-4)Glc
# How it was run: as §1
binder,measurement,setting,value
MpL2 (Macrolepiota procera) (protein) MSTQVSSGQTYKITNVKAGTVIRLSGEDNKSIIGYPYHSGKNQQWTFNWTGKAWTLRSASSGSYLGIEGTPADGTRLVAVNDPFEWHIWRDEANENAFRIFVPFTNYNLDLSGYGDTTPGTPVQLWWTWEGLHQTWTIDRP,glycan array binding signal (z-score),[1],2.76
same,glycan array binding signal (z-score),[2],1.3
same,glycan array binding signal (z-score),[3],-0.151
same,glycan array binding signal (z-score),[4],-0.076
same,glycan array binding signal (z-score),[5],0.057
same,glycan array binding signal (z-score),[6],-0.181
same,glycan array binding signal (z-score),[7],-0.788
same,glycan array binding signal (z-score),[8],-1.1
same,glycan array binding signal (z-score),[9],0.305
same,glycan array binding signal (z-score),[10],-0.591
same,glycan array binding signal (z-score),[11],0.027
same,glycan array binding signal (z-score),Gal(b1-4)GlcNAc6P,-0.624
same,glycan array binding signal (z-score),Gal(b1-6)Gal,-0.78
same,glycan array binding signal (z-score),Gal3S(b1-3)GalNAc,-0.228
same,glycan array binding signal (z-score),Gal3S(b1-3)GlcNAc,-0.443
same,glycan array binding signal (z-score),[12],-0.118
same,glycan array binding signal (z-score),Gal3S(b1-4)Glc,-0.052
same,glycan array binding signal (z-score),Gal3S(b1-4)Glc6S,-0.185
same,glycan array binding signal (z-score),Gal3S(b1-4)GlcNAc,-0.614
same,glycan array binding signal (z-score),[13],0.635
same,glycan array binding signal (z-score),[14],-0.293
same,glycan array binding signal (z-score),[15],-0.262
same,glycan array binding signal (z-score),Gal3S4S(b1-4)GlcNAc,-0.829
same,glycan array binding signal (z-score),Gal3S6S(b1-4)GlcNAc,-0.002
same,glycan array binding signal (z-score),Gal3S6S(b1-4)GlcNAc6S,0.189
same,glycan array binding signal (z-score),Gal4S(b1-4)GlcNAc,-0.962
same,glycan array binding signal (z-score),Gal4S6S(b1-4)GlcNAc,-0.517
same,glycan array binding signal (z-score),Gal6P(b1-4)GlcNAc,0.269
same,glycan array binding signal (z-score),Gal6S(b1-3)GlcNAc,-0.297
same,glycan array binding signal (z-score),Gal6S(b1-3)GlcNAc6S,-0.463
same,glycan array binding signal (z-score),Gal6S(b1-4)Glc,-0.275
same,glycan array binding signal (z-score),Gal6S(b1-4)Glc6S,0.062
same,glycan array binding signal (z-score),Gal6S(b1-4)GlcNAc,-0.327
same,glycan array binding signal (z-score),Gal6S(b1-4)GlcNAc6S,-0.209
same,glycan array binding signal (z-score),GalNAc(a1-3)Gal,-0.306
same,glycan array binding signal (z-score),GalNAc(a1-3)GalNAc,0.034
same,glycan array binding signal (z-score),[16],-0.218
same,glycan array binding signal (z-score),[17],-0.347
same,glycan array binding signal (z-score),GalNAc(b1-3)Gal,-0.214
same,glycan array binding signal (z-score),[18],0.367
same,glycan array binding signal (z-score),[19],0.074
same,glycan array binding signal (z-score),[20],-0.923
same,glycan array binding signal (z-score),GalNAc(b1-3)GalNAc,-0.475
same,glycan array binding signal (z-score),GalNAc(b1-3)GlcNAc,-0.142
same,glycan array binding signal (z-score),GalNAc(b1-4)Gal(b1-4)Glc,-0.084
